Positions count from the first letter of the chain named. The list shows a part of the results.

To fix the notation:
T1: RBFOX1 RRM RbFoxmut (Fox-RRM*) (Homo sapiens, UniProt Q9NWB1 109-208, R118D;E147R;N151S;E152T)
T1 sequence: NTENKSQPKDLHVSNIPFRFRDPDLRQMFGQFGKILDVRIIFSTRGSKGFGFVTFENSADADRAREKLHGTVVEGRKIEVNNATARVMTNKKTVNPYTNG

B1: UCGCCAC (DNA:RNA)
RNA: GGGAGACCGGAAUUCAGAUUGUCCUCGCCACUUAAAUCCCGUCGUAGCCACCA
DNA 1: CAATCTGAATTCCGGTCTCCC
DNA 2: TGGTGGCTACGACGGGATT
B2: ACUUGUG (DNA:RNA)
RNA: B1 RNA with U25A, G27U, C28U, C29G, A30U, C31G
DNA 1: CAATCTGAATTCCGGTCTCCC
DNA 2: TGGTGGCTACGACGGGATT
B3: UCAGCUC (DNA:RNA)
RNA: B1 RNA with G27A, C28G, A30U
DNA 1: CAATCTGAATTCCGGTCTCCC
DNA 2: TGGTGGCTACGACGGGATT
B4: GGGGCUA (DNA:RNA)
RNA: B1 RNA with U25G, C26G, C28G, A30U, C31A
DNA 1: CAATCTGAATTCCGGTCTCCC
DNA 2: TGGTGGCTACGACGGGATT
B5: CUUGGUU (DNA:RNA)
RNA: GGGAGACCGGAAUUCAGAUUGUCCCUUGGUUUUAAAUCCCGUCGUAGCCACCA
DNA 1: CAATCTGAATTCCGGTCTCCC
DNA 2: TGGTGGCTACGACGGGATT
B6: GAGCCGU (DNA:RNA)
RNA: B1 RNA with U25G, C26A, A30G, C31U
DNA 1: CAATCTGAATTCCGGTCTCCC
DNA 2: TGGTGGCTACGACGGGATT
B7: AUGAUGC (DNA:RNA)
RNA: B1 RNA with U25A, C26U, C28A, C29U, A30G
DNA 1: CAATCTGAATTCCGGTCTCCC
DNA 2: TGGTGGCTACGACGGGATT
B8: UUAAUGG (DNA:RNA)
RNA: B5 RNA with C25U, U27A, G28A, G29U, U30G, U31G
DNA 1: CAATCTGAATTCCGGTCTCCC
DNA 2: TGGTGGCTACGACGGGATT
B9: UUUCUGA (DNA:RNA)
RNA: B5 RNA with C25U, G28C, G29U, U30G, U31A
DNA 1: CAATCTGAATTCCGGTCTCCC
DNA 2: TGGTGGCTACGACGGGATT

The target in the test is T1, RBFOX1 RRM RbFoxmut (Fox-RRM*). The test can be described thus: EMSA; HiTS-Eq, 1 nM pool, 10 min; buffer printed only for the single-RNA assays: 10 mM Tris pH 7.5, 150 mM NaCl, 3.4 mM EDTA, 0.001% NP-40, 30 C. Particulars: tags: His6 N-terminal (pET28a); label: 5' 32P. The gist of the method:
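Relative association constants, normalised to the cognate motif, were derived by comparing read counts of each RNA species with those of the control reaction. The RNA sequenced was the free fraction, separated by 8% native PAGE after a 10 min equilibration in 50 µL of 1 nM 5′-radiolabelled RNA (7 randomized nucleotides) with increasing concentrations of purified wild-type or mutant RbFox RRM.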
As to B1, the binding signal was 0.121 KA relative to UGCAUGU.
For the molecule B2, the binding signal was 0.168 KA relative to UGCAUGU.
The same measure for B3: 0.0683 KA relative to UGCAUGU; for B4: 0.132 KA relative to UGCAUGU.
The same measure for B5: 0.0961 KA relative to UGCAUGU; for B6: 0.0954 KA relative to UGCAUGU; for B7: 0.149 KA relative to UGCAUGU.
With B8 the figure was 0.0858 KA relative to UGCAUGU; with B9, 0.0685 KA relative to UGCAUGU.
